Assay results reported in DBAASP.
Converted amounts (≈) assume the structure as drawn. “And” between values parts separate entries of the source, which are not always exact repeats. Equal values may be shown once.

Experiments:
Assay in all cases: ≥ marks a high value that may be exact or a test limit, other limits are often not marked
[1] = tested on: Acinetobacter baumannii b-04
[2] = tested on: Bacillus subtilis KCTC 1918
[3] = tested on: Pseudomonas aeruginosa
[4] = tested on: Acinetobacter baumannii b-01
[5] = tested on: Staphylococcus aureus CCARM 3543
[6] = tested on: Candida albicans KCTC 7729
[7] = tested on: Trichosporon beigelii KCTC 7707
[8] = tested on: Staphylococcus aureus KCTC 1621
[9] = tested on: Aspergillus niger KCTC 6461
[10] = tested on: Staphylococcus epidermidis KCTC 1917
[11] = tested on: Aspergillus terreus KCTC 6178
[12] = tested on: Salmonella typhimurium KCTC 1926
[13] = tested on: Staphylococcus aureus CCARM 3570
[14] = tested on: Candida albicans KCTC 7121
[15] = tested on: Cryptococcus neoformans KCCM 50544
[16] = tested on: Escherichia coli KCTC 1682
[17] = tested on: Acinetobacter baumannii b-02
[18] = tested on: Proteus vulgaris
[19] = tested on: Candida albicans KCTC 7965
[20] = tested on: Pseudomonas aeruginosa KCTC 1637
[21] = tested on: Bacillus subtilis KCTC 3068
[22] = tested on: Pyricularia grisea KACC 40425
[23] = tested on: Bacillus megaterium KCTC 1096
[24] = tested on: Escherichia coli KCCM 11569
[25] = tested on: Candida albicans KCTC 7728
[26] = tested on: Acinetobacter baumannii b-03
[27] = tested on: Bacillus subtilis KCCM 11495
[28] = tested on: Fusarium oxysporum KACC 40902
[29] = tested on: Geotrichum candidum KACC 40354
[30] = tested on: Candida albicans KCTC 7270

MIC [1]: 5.43 µM (≈ 12.5 µg/mL)
MIC [2]: 0.78 µM (≈ 1.79 µg/mL)
MIC [3]: 10.9 µM (≈ 25 µg/mL)
MIC [4]: 2.72 µM (≈ 6.25 µg/mL)
MIC [5]: 9.83 µM (≈ 22.6 µg/mL)
MIC [6]: 1.23 µM (≈ 2.83 µg/mL)
MIC [7]: 1.23 µM (≈ 2.83 µg/mL)
MIC [8]: 2 µM (≈ 4.6 µg/mL)
MIC [9]: 27.8 µM (≈ 64 µg/mL)
MIC [10]: 1 µM (≈ 2.3 µg/mL)
MIC [11]: 27.8 µM (≈ 64 µg/mL)
MIC [12]: 1 µM (≈ 2.3 µg/mL)
MIC [13]: 9.83 µM and 27.8 µM and 19.7 µM
MIC [14]: 0.435 µM (≈ 1 µg/mL)
MIC [15]: 19.7 µM (≈ 45.2 µg/mL)
MIC [16]: 2 µM (≈ 4.6 µg/mL)
MIC [17]: 10.9 µM (≈ 25 µg/mL)
MIC [18]: 3.12 µM (≈ 7.19 µg/mL)
MIC [19]: 19.7 µM (≈ 45.2 µg/mL)
MIC [20]: 1 µM (≈ 2.3 µg/mL)
MIC [21]: 1 µM (≈ 2.3 µg/mL)
MIC [22]: 2.46 µM (≈ 5.65 µg/mL)
MIC [23]: 0.78 µM (≈ 1.79 µg/mL)
MIC [24]: 0.435 µM (≈ 1 µg/mL)
MIC [25]: 2.46 µM (≈ 5.65 µg/mL)
MIC [26]: 5.43 µM (≈ 12.5 µg/mL)
MIC [27]: 0.615 µM (≈ 1.41 µg/mL)
MIC [28]: 2.46 µM (≈ 5.65 µg/mL)
MIC [29]: 4.92 µM (≈ 11.3 µg/mL)
MIC [30]: 4.92 µM (≈ 11.3 µg/mL)
SMILES: CC[C@H](C)[C@H](NC(=O)[C@H](CCCCN)NC(=O)[C@H](CCCCN)NC(=O)[C@H](Cc1ccccc1)NC(=O)[C@H](CC(C)C)NC(=O)[C@H](CCCCN)NC(=O)[C@H](Cc1c[nH]c2ccccc12)NC(=O)[C@@H](N)CCCCN)C(=O)N1CCC[C@H]1C(=O)N[C@@H](CCCCN)C(=O)N[C@@H](Cc1ccccc1)C(=O)N[C@@H](CC(C)C)C(=O)N[C@@H](Cc1cnc[nH]1)C(=O)N[C@@H](CC(C)C)C(=O)N[C@@H](C)C(=O)N[C@@H](CCCCN)C(=O)N[C@@H](CCCCN)C(=O)N[C@@H](Cc1ccccc1)C(N)=O [KWKLFKKIPKFLHLAKKF]
